Measurements as given in ChEMBL document CHEMBL4888484, “Replenishing the malaria drug discovery pipeline: Screening and hit evaluation of the MMV Hit Generation Library 1 (HGL1) against asexual blood stage Plasmodium falciparum ,using a nano luciferase reporter read-out” (2022).
About 540 (0.36%) of roughly 150,000 compounds showed an effect of 50% or more. The list shows a part of the results.

Each compound was assayed on Plasmodium falciparum (assay: Primary screen in NF54 nanoGlo assay, in single point, at 2uM, 72h; a lower Z score goes with more inhibition). Details: timepoint 72 hour.
Assay type: functional, Erythrocyte
With `Cc1noc(C)c1CN1CC2(CCN(C(=O)[C@@H]3CCCO3)CC2)CC1=O` the “% Inhibition” value was -5% and the Z score was 0.58.
With `C[C@]1(Cc2cccc(F)c2)CCCN1C(=O)CN1CCCCC1=O` the “% Inhibition” value was -1% and the Z score was 0.22.
`Cc1nn(C)c2nc(NCCN3CCCC[C@@H]3CO)sc12` was tested, and the “% Inhibition” value was -8% and the Z score was 1.08.
For `O=C(c1cccc(Oc2ccccc2)c1)N1CCC[C@H]1c1nc2ccccc2s1`, the “% Inhibition” value was -9% and the Z score was 1.45.
`CN1CCCc2cc(C(=O)NCc3cccc(F)c3)sc21` was tested, and the “% Inhibition” value was -15% and the Z score was 2.76.
For `CCCN1CCC(CC(=O)N[C@@H](C)[C@H](O)c2ccccc2)CC1`, the “% Inhibition” value was -17% and the Z score was 1.68.
`CC1(C)CN(C(=O)c2cnc3ccc(F)cc3c2)CCS1(=O)=O` was tested, and the “% Inhibition” value was -19% and the Z score was 2.59.
In the case of `O=C(Cc1ccccc1F)Nc1[nH]ncc1-c1ccc2c(c1)OCO2`, the “% Inhibition” value is reported as -3% and the Z score is reported as 0.55.
`O=C1CCCN1c1cccc(NC(=O)N2CCC[C@@H]2CO)c1` was tested, and the “% Inhibition” value was 33% and the Z score was -3.73.
With `CC#CCn1nc(C2CC2)nc1C1CC1` the “% Inhibition” value was -14% and the Z score was 2.13.
With `Cc1nc(CC(C)C)oc1C(=O)N1CCn2c1nc1ccccc12` the “% Inhibition” value was -4% and the Z score was 0.67.
`Cc1ccsc1C(=O)NCc1nc(C2CCC(F)(F)CC2)no1` was tested, and the “% Inhibition” value was -10% and the Z score was 1.24.
`O=C(Cn1ccnc1-c1cccs1)NCc1ccccc1` was tested, and the “% Inhibition” value was -11% and the Z score was 1.52.
In the case of `COC(C)c1nsc(N2CCCC2c2nc3ccccc3s2)n1` (centres undefined), the “% Inhibition” value is reported as -7% and the Z score is reported as 1.04.
`Cc1ncc(C(=O)NC[C@@H]2C[C@H]2c2ccccc2)c(C2CC2)n1` was tested, and the “% Inhibition” value was -1% and the Z score was 0.13.
`CCOc1ccc(NC(=O)C[C@H]2CCCN(c3cnn(C)c(=O)c3)C2)cc1` was tested, and the “% Inhibition” value was -13% and the Z score was 1.71.
With `CN1CCCN(c2cnn(Cc3cccc(F)c3C(F)(F)F)c(=O)c2)CC1` the “% Inhibition” value was -15% and the Z score was 1.42.
In the case of `O=C1C[C@@H](c2ccccc2)N(C(=O)CNS(=O)(=O)c2ccccc2)CCCCCN1`, the “% Inhibition” value is reported as -5% and the Z score is reported as 0.61.
`CCc1nc(OC)ccc1NC(=O)c1snnc1C1CC1` was tested, and the “% Inhibition” value was 6% and the Z score was -1.21.
`COc1ccc(NC(=O)N2CCC(CN3CCc4ccccc43)CC2)c(C)c1` was tested, and the “% Inhibition” value was -10% and the Z score was 1.83.
In the case of `O=C(CCN1CCCCO1)N1CCN(c2ncncn2)CC1`, the “% Inhibition” value is reported as -13% and the Z score is reported as 2.52.
For `CN1CC2(C[C@H]1c1nc(-c3ccccc3)no1)CN(C(=O)c1ccncc1)C2`, the “% Inhibition” value was -9% and the Z score was 1.04.
With `CN(Cc1ncc(Br)cn1)Cc1noc2c1COCC2` the “% Inhibition” value was 9% and the Z score was -1.36.
For `COC(=O)c1ccc(N2CCC[C@H]2c2ccc(OC)cc2)nn1`, the “% Inhibition” value was 2% and the Z score was -0.29.
`COCCCn1c(C)cc(C(=O)N2CCC(C)(c3noc(-c4ccncc4)n3)CC2)c1C` was tested, and the “% Inhibition” value was 1% and the Z score was -0.19.
`O=C(NC1CCCC1)N1CC[C@H](CCOc2ccccc2F)C1` was tested, and the “% Inhibition” value was -1% and the Z score was 0.1.
With `CCOc1ccc([C@@]2(O)CN3CCCCCC3=[N+]2c2ccc(C)cc2)cc1` the “% Inhibition” value was 1% and the Z score was -0.19.
With `CN1CCCC[C@@H]1CCNC(=O)c1ccc(N2CC(n3cccn3)C2)nc1` the “% Inhibition” value was -2% and the Z score was 0.27.
In the case of `COc1cc(NC(=O)CN[C@H]2CCCc3sc(C)nc32)cc(OC)c1`, the “% Inhibition” value is reported as -4% and the Z score is reported as 0.6.
`CN1CCN(C(=O)c2ccn3c(-c4ccccc4)nnc3c2)CC1` was tested, and the “% Inhibition” value was -10% and the Z score was 1.62.
For `Cc1cc(CS(=O)(=O)N[C@@H](C)c2ccc(Cl)cc2Cl)on1`, the “% Inhibition” value was -2% and the Z score was 0.29.
With `COC[C@H]1CCCN1S(=O)(=O)NCc1csc(N)n1` the “% Inhibition” value was -6% and the Z score was 0.77.
`Cc1cccc(C)c1OCc1cc(C(=O)N2CCN(C)C(=O)[C@@H]2C)no1` was tested, and the “% Inhibition” value was -6% and the Z score was 0.86.
With `CCOC(C)C(=O)N1CCCC(CC)C1` (centres undefined) the “% Inhibition” value was 2% and the Z score was -0.32.
In the case of `NC(=O)CN1CCC[C@H](c2ncnn2-c2ccc(OC(F)(F)F)cc2)C1`, the “% Inhibition” value is reported as 16% and the Z score is reported as -2.11.
For `CC(=O)C1CCN(S(C)(=O)=O)CC1`, the “% Inhibition” value was -8% and the Z score was 1.2.
For `CC(C)COC1CCN(CN2C(=O)C3CC=CCC3C2=O)C1` (centres undefined), the “% Inhibition” value was -19% and the Z score was 1.56.
For `CC1=C(C(=O)N2CCOCC2)[C@H](c2ccccc2Cl)n2nc(C)nc2N1`, the “% Inhibition” value was -22% and the Z score was 3.19.
`COc1cc(Cl)c(C)cc1NC(=O)Cn1nc2c3sc(N4CCCC4)nc3ncn2c1=O` was tested, and the “% Inhibition” value was -10% and the Z score was 0.93.
In the case of `CN1C(=O)c2ccccc2Oc2ccc(C(=O)NCc3ccc(F)cc3)cc21`, the “% Inhibition” value is reported as 2% and the Z score is reported as -0.3.
In the case of `CC(C)Oc1cc(NC(Cc2ccccn2)[C@H]2C[C@H](O)C2)nc(N)n1` (some centres undefined), the “% Inhibition” value is reported as 7% and the Z score is reported as -1.33.
With `O=C(NC1CC1)c1n[nH]c2c1CCCCCC2` the “% Inhibition” value was -6% and the Z score was 1.03.
